Data published in PubChem BioAssay AID623901 (Broad Institute, 2012).
Among all 340,000 compounds or so, about 470 (0.14%) were called active. This list was built around the results that the source calls inconclusive (neither active nor inactive); the mix of calls is not that of the screen.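 Rule for the calls: active = mean activation of 30% or more, with every replicate also reaching 30%; inconclusive = mean activation of 30% or more but some replicate falls short; inactive = the rest.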

experiment: small molecules raising miR-122 sensor signal – cell-based, Huh7 psiCHECK-miR122, Renilla luciferase, single point, primary screen (AID 623901); conditions: 48 h, at 12.5 µM, hits give high values;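 note: 0% = median of neutral control wells and 100% = median of positive control wells; higher luciferase signal means stronger suppression of miR-122 activity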

Q: Which activation does the source give for `COCC(=O)Nc1ccc2c(c1)C(=O)N(C)[C@@H]1CC[C@H](CC(=O)NCc3ccccc3F)O[C@H]1CO2` here?
A: active: 50%

Q: For `CCCC#Cc1ccc2c(c1)O[C@H](CN(C)S(C)(=O)=O)[C@@H](C)CN([C@H](C)CO)S2(=O)=O`, which activation is on record?
A: inactive: -7.54%

Q: With `CC(=O)Oc1ccc2c(c1)C(=O)c1ccccc1CO2` as the compound, how does the activation read?
A: active: 34.7%

Q: With `CC(C)CC#Cc1ccc2c(c1)O[C@@H](CN(C)C(=O)C1CCOCC1)[C@H](C)CN([C@H](C)CO)S2(=O)=O` as the compound, how does the activation read?
A: inactive: -5.95%

Q: Which activation does the source give for `COc1ccc(OCCCC(=O)NCCc2ccccc2)cc1` here?
A: inactive: -223%

Q: With `C[C@@H]1CN([C@@H](C)CO)S(=O)(=O)c2ccc(-c3cncnc3)cc2O[C@@H]1CN(C)C(=O)Cc1ccncc1` as the compound, how does the activation read?
A: inactive: 0.636%

Q: For `O=C(CSc1nc2[nH]ncc2c(=O)n1-c1ccccc1Br)NCc1ccco1`, which activation is on record?
A: inconclusive: 48.6%

Q: Which activation does the source give for `CC(=O)N=c1scc(-c2ccccc2)n1-c1cccc(O)c1` here?
A: inconclusive: 31.8%

Q: Which activation does the source give for `CCCNC(=O)C[C@@H]1CC[C@@H]2[C@H](COc3ccc(NS(=O)(=O)c4ccccc4C)cc3C(=O)N2C)O1` here?
A: active: 66.7%

Q: For `Cc1cc(C(C)(C)CC(C)(C)C)ccc1OCCOCC[N+](C)(C)Cc1ccccc1`, which activation is on record?
A: active: 57.6%

Q: With `COc1ccc(/C=N/NC(=O)COc2ccccc2-c2ccccc2)cc1` as the compound, how does the activation read?
A: inactive: -129%

Q: Which activation does the source give for `CO[C@H]1CN(C)C(=O)c2cc(NC(=O)Nc3ccc(Cl)c(Cl)c3)ccc2OC[C@@H](C)NC[C@@H]1C` here?
A: inconclusive: 35.1%

Q: Which activation does the source give for `C[C@@H]1CN([C@@H](C)CO)C(=O)c2cc(NC(=O)NC3CCCCC3)ccc2O[C@@H]1CN(C)C(=O)Nc1ccc2c(c1)OCO2` here?
A: active: 32.4%

Q: Which activation does the source give for `Nc1cc(=O)[nH]c(SCC(=O)c2ccc(F)cc2)n1` here?
A: inconclusive: 32%

Q: Which activation does the source give for `CC1C/C(=C/c2cccn2C)C(=O)/C(=C/c2cccn2C)C1` (stereo unspecified) here?
A: inconclusive: 35.5%

Q: With `C[C@@H]1CN([C@@H](C)CO)S(=O)(=O)c2ccc(/C=C/c3ccccc3)cc2O[C@@H]1CN(C)C(=O)c1cccnc1` as the compound, how does the activation read?
A: inconclusive: 20.3%

Q: For `C[C@@H]1CN([C@H](C)CO)C(=O)c2cc(NC(=O)Cc3ccccc3)ccc2O[C@@H](C)CCCCO[C@H]1CN(C)Cc1ccc(C(F)(F)F)cc1`, which activation is on record?
A: active: 30.7%

Q: For `C[C@@H]1CCCCO[C@H](CN(C)CC2CCCCC2)[C@H](C)CN([C@@H](C)CO)C(=O)c2cc(NC(=O)Nc3cccc4ccccc34)ccc2O1`, which activation is on record?
A: inconclusive: 30.8%

Q: For `C[C@@H]1CN([C@@H](C)CO)S(=O)(=O)c2ccc(-c3cncnc3)cc2O[C@@H]1CN(C)Cc1ccc(Oc2ccccc2)cc1`, which activation is on record?
A: inconclusive: 35.7%

Q: For `COc1cccc(-n2nnnc2S(C)(=O)=O)c1`, which activation is on record?
A: active: 48.4%

Q: For `COc1ccc(-c2nc(NC(=O)CSc3nnc(C)s3)ns2)cc1`, which activation is on record?
A: inconclusive: 39.6%

Q: For `Oc1ccc2ccccc2c1/C=N/Nc1nnc(-c2ncc[nH]2)c2ccccc12`, which activation is on record?
A: active: 60.6%

Q: For `CCCC#Cc1ccc2c(c1)O[C@H](CN(C)C(=O)c1ccncc1)[C@H](C)CN([C@@H](C)CO)S2(=O)=O`, which activation is on record?
A: active: 31.5%

Q: With `CCCN(C[C@@H]1N[C@@H](CO)[C@H]1c1ccc(-c2cccnc2)cc1)C(C)=O` as the compound, how does the activation read?
A: inconclusive: 75%

Q: For `Cc1ccc(-c2cc(C(=O)NCCCn3ccnc3)c3ccccc3n2)s1`, which activation is on record?
A: inactive: -123%

Q: Which activation does the source give for `CC(C)C#Cc1cnc2c(c1)C(=O)N([C@H](C)CO)C[C@H](C)[C@@H](CN(C)Cc1ccccn1)O2` here?
A: inactive: 1.46%

Q: With `C[C@@H]1CN([C@@H](C)CO)C(=O)c2cc(C#CCN(C)C)cnc2O[C@H]1CN(C)C(=O)Cc1ccncc1` as the compound, how does the activation read?
A: inactive: 3.47%

Q: Which activation does the source give for `C[C@H](CO)N1C[C@H](C)[C@H](CN(C)C(=O)c2ccccc2)Oc2cc(/C=C/c3ccccc3)ccc2S1(=O)=O` here?
A: inactive: -3.55%

Q: Which activation does the source give for `C[C@H](CO)N1C[C@H](C)[C@H](CN(C)Cc2cncnc2)Oc2cc(C#C[C@@H](C)O)ccc2S1(=O)=O` here?
A: inactive: 2.88%

Q: Which activation does the source give for `CO[C@H]1CN(C)C(=O)c2cc(NC(=O)Nc3cc(Cl)cc(Cl)c3)ccc2OC[C@H](C)NC[C@@H]1C` here?
A: inconclusive: 31.9%

Q: Which activation does the source give for `C[C@@H]1CN([C@@H](C)CO)C(=O)c2cccc(N(C)C)c2O[C@@H]1CN(C)Cc1ccc(C(=O)Nc2ccccc2N)cc1` here?
A: inactive: -109%

Q: Which activation does the source give for `Cc1cccc(NC(=O)C[C@H]2CC[C@H]3[C@@H](COc4ccc(NC(=O)NC(C)C)cc4C(=O)N3C)O2)c1` here?
A: inconclusive: 58.3%

Q: Which activation does the source give for `C[C@@H]1CN([C@@H](C)CO)S(=O)(=O)c2ccc(C#Cc3ccccc3F)cc2O[C@H]1CN(C)C(=O)c1ccc2c(c1)OCO2` here?
A: inconclusive: 36.3%

Q: For `Cc1sc2ncnc(N/N=C/c3ccccc3O)c2c1C`, which activation is on record?
A: active: 36.5%

Q: For `COc1ccc(-c2cn3c(C)c(C(=O)Nc4cccc(NC(C)=O)c4)sc3n2)cc1`, which activation is on record?
A: inconclusive: 31.6%

Q: Which activation does the source give for `CCCCCCCCCCCCCCC[C@@H](O)[C@@H](N)CO` here?
A: inconclusive: 32.8%

Q: With `O=S1(=O)c2cccc3cccc(c23)N1Cc1nnc(-c2ccccc2Br)o1` as the compound, how does the activation read?
A: inconclusive: 35.1%

Q: With `COC(=O)C[C@H]1CC[C@@H]2[C@@H](COc3ccc(NC(=O)c4ccc(F)c(F)c4)cc3C(=O)N2C)O1` as the compound, how does the activation read?
A: inconclusive: 41.7%

Q: Which activation does the source give for `NC(=O)C1CCN(C2=C(Cl)C(=O)c3ccccc3C2=O)CC1` here?
A: active: 70.1%

Q: Which activation does the source give for `CCC(=O)N1[C@H](CO)[C@@H](c2ccccc2)[C@@H]1CN(CC)C(=O)c1cccc(F)c1` here?
A: inconclusive: 58.3%

Q: With `CCOC(=O)/C(=C\C=C1/Sc2ccccc2N1CC)C(C)=O` as the compound, how does the activation read?
A: active: 52.1%

Q: Which activation does the source give for `Fc1ccccc1-c1nc(-c2ccncc2)no1` here?
A: inconclusive: 30.1%

Q: For `COc1ccc(NC(=O)N2CCCCN3[C@H](CO)[C@H](c4ccc(C#CCC(C)C)cc4)[C@H]3C2)cc1`, which activation is on record?
A: active: 33.7%

Q: Which activation does the source give for `Cc1ccc(-c2nc(C(Cl)Cl)c3ccccc3n2)cc1` here?
A: active: 61.4%

Q: Which activation does the source give for `C[C@H](CO)N1C[C@H](C)[C@H](CN(C)C(=O)Nc2ccc3c(c2)OCO3)Oc2ncc(C#Cc3cccc(F)c3)cc2C1=O` here?
A: inactive: 5.6%

Q: With `CCCNC(=O)C[C@H]1CC[C@H]2[C@@H](COc3ccc(NC(=O)c4cc(F)cc(F)c4)cc3C(=O)N2C)O1` as the compound, how does the activation read?
A: active: 53.3%
